No constants are given. Whether binding was seen depends on the method and setting. For part of these data: In cells and extracts the contact can be indirect. Some binding calls cover weakened binding; strength is not graded here. Tags and fused reporters may be left off the sequences shown. Values belong to the binder of their own block, whether it stands above or below them.
Tests used:
[1] = target: T1, cleavage and polyadenylation specificity factor 30-L (CPSF30-L), BD fusion for yeast two-hybrid (Arabidopsis thaliana) (UniProt A9LNK9); assay: two-hybrid; yeast two-hybrid (Clontech); CPSF30-L or mCPSF30-L in pGBKT7 (BD) as bait, FIP1, FIP1-S1 or FIP1-S2 in pGADT7 (AD); interaction tested on QDO (SD medium lacking leucine, tryptophan, histidine and adenine)
T1 sequence: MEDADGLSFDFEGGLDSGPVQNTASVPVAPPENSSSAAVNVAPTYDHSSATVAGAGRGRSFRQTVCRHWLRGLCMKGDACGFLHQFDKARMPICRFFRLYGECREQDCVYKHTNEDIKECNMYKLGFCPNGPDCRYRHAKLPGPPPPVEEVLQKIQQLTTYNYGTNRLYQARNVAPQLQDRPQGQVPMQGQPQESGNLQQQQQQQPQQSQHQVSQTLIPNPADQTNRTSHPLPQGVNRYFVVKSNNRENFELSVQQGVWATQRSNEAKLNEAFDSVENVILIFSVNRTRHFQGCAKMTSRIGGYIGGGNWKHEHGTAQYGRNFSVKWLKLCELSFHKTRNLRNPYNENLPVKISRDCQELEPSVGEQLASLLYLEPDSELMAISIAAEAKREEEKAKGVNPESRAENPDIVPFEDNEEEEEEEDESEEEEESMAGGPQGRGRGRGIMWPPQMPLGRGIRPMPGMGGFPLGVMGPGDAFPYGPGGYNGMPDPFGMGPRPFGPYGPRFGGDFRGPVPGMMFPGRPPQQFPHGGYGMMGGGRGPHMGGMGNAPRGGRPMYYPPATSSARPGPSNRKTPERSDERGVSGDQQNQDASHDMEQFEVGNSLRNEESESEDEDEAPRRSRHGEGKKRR

[2] = target: T2, GST-CPSF30-L (Arabidopsis thaliana) (UniProt A9LNK9); assay: pull-down; GST-tagged bait immobilised on glutathione agarose beads (Thermo GST protein interaction pull-down kit), His-tagged prey, both made in E. coli BL21; eluate blotted with anti-His antibody
T2 sequence: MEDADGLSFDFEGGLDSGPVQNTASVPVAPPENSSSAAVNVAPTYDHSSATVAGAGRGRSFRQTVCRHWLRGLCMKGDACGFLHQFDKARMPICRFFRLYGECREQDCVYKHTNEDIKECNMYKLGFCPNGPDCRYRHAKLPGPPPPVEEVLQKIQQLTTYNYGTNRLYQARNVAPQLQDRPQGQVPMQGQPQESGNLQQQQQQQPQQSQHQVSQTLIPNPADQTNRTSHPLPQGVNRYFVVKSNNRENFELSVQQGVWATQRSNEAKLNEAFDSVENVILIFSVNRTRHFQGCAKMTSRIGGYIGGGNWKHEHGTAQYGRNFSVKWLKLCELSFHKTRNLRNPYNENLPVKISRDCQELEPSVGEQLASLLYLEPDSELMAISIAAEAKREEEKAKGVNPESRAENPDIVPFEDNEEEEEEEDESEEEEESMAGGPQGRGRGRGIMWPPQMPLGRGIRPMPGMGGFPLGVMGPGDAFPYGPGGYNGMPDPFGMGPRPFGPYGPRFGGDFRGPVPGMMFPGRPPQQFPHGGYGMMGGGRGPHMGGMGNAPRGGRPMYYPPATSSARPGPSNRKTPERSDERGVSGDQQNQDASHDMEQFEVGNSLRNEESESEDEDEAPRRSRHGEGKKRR

[3] = target: T3, CPSF30-L-YFP^N (Arabidopsis thaliana) (UniProt A9LNK9); assay: split reporter; BiFC; YFP^N and YFP^C fusions cotransfected into Arabidopsis mesophyll protoplasts, confocal microscopy; signal in the nucleus
T3 sequence: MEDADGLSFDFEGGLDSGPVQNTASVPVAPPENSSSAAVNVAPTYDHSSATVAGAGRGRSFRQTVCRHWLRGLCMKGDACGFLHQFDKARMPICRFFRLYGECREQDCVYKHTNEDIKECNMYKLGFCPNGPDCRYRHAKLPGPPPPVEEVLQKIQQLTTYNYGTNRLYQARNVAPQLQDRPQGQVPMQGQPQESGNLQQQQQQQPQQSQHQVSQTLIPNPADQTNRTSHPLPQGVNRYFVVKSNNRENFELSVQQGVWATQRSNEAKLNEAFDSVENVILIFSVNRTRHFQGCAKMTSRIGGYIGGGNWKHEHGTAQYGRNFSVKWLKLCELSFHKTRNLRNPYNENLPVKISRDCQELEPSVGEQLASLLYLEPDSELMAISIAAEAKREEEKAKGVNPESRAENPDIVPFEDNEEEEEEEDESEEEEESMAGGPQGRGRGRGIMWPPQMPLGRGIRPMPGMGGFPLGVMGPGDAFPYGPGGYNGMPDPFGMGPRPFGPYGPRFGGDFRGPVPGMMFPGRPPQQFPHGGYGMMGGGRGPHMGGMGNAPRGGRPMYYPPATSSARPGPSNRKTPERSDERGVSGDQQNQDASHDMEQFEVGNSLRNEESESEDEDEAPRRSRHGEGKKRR

- binding [1]: binds
B1: FIP1-S1 (N-terminal 445 amino acid residues of FIP1), AD fusion for yeast two-hybrid (domain or fragment, UniProt F4KDH9 1-445)
chain: MEEDDEFGDLYSDVLQPFQPPVVLPPPPPLPHRSIDLNLRSQDQDVSEPNSAPISRVSDNDAVKLSTQDATRQAIVDGGGDDKDMSFDIEEPDADSTPTIPGLFVTGALPGLATDRGVSQVTTRIEQQVGGGGDGGYGGQGEGDDWDSDSEDDLQIVLNDSSRNVMIGGADRRSRMGDNEDDDDEDDEDPLVIVADTDPNQPMEEQMWGEDGLQGIEGDGKDGGEAGKGSGPGGATGPPKAGYSSHGYHPFHSQFKYVRPGAAPIPGGAASVGGPSSGQVRPPANLGPMAGRGRGDWRPLGMRNASAAQKGFHQPWGSNTAGRGLDFTLPSHKTIFEVDIDSFEEKPWRYPGVEMTDYFNFGLNEESWKDYCKQLDQHRIQTTMQSRIRVYESGRTDQGYDPDLPPELAAATGAQGVPVDSSNLVKPDSVQGDSAKVPANVRPTL

- binding [2]: binds
B2: His-FIP1-S1 (domain or fragment, UniProt F4KDH9 1-445)
chain: MEEDDEFGDLYSDVLQPFQPPVVLPPPPPLPHRSIDLNLRSQDQDVSEPNSAPISRVSDNDAVKLSTQDATRQAIVDGGGDDKDMSFDIEEPDADSTPTIPGLFVTGALPGLATDRGVSQVTTRIEQQVGGGGDGGYGGQGEGDDWDSDSEDDLQIVLNDSSRNVMIGGADRRSRMGDNEDDDDEDDEDPLVIVADTDPNQPMEEQMWGEDGLQGIEGDGKDGGEAGKGSGPGGATGPPKAGYSSHGYHPFHSQFKYVRPGAAPIPGGAASVGGPSSGQVRPPANLGPMAGRGRGDWRPLGMRNASAAQKGFHQPWGSNTAGRGLDFTLPSHKTIFEVDIDSFEEKPWRYPGVEMTDYFNFGLNEESWKDYCKQLDQHRIQTTMQSRIRVYESGRTDQGYDPDLPPELAAATGAQGVPVDSSNLVKPDSVQGDSAKVPANVRPTL

- binding [3]: binds
B3: FIP1-S1-YFP^C (domain or fragment, UniProt F4KDH9 1-445)
chain: MEEDDEFGDLYSDVLQPFQPPVVLPPPPPLPHRSIDLNLRSQDQDVSEPNSAPISRVSDNDAVKLSTQDATRQAIVDGGGDDKDMSFDIEEPDADSTPTIPGLFVTGALPGLATDRGVSQVTTRIEQQVGGGGDGGYGGQGEGDDWDSDSEDDLQIVLNDSSRNVMIGGADRRSRMGDNEDDDDEDDEDPLVIVADTDPNQPMEEQMWGEDGLQGIEGDGKDGGEAGKGSGPGGATGPPKAGYSSHGYHPFHSQFKYVRPGAAPIPGGAASVGGPSSGQVRPPANLGPMAGRGRGDWRPLGMRNASAAQKGFHQPWGSNTAGRGLDFTLPSHKTIFEVDIDSFEEKPWRYPGVEMTDYFNFGLNEESWKDYCKQLDQHRIQTTMQSRIRVYESGRTDQGYDPDLPPELAAATGAQGVPVDSSNLVKPDSVQGDSAKVPANVRPTL

Source: publication PMC5945890
